Results reported in paper PMC6919601, “Identification of Plasmodium dipeptidyl aminopeptidase allosteric inhibitors by high throughput screening” (PLoS ONE, 2019).
Several values for one entry are separate records, joined by “and”; a condition that tells them apart may be missing. Equal values may be shown once. The campaign covered roughly 110,000 compounds. About 230 (0.21%) showed an effect of 50% or more. The list shows a part of the results.

The molecules below were run against DPAP1 (Plasmodium falciparum, UniProt Q8IIJ9) (assay: primary screen, percent inhibition; read by cleavage of a fluorogenic dipeptide substrate; higher = more effect of the substance).
Parameters: species or system P. falciparum D10 trophozoite lysates; single well
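Further: 30 min substrate incubation versus DMSO and 10 µM JCP410 controls.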

DPAP1, sequence (Q8IIJ9 whole entry, looked up): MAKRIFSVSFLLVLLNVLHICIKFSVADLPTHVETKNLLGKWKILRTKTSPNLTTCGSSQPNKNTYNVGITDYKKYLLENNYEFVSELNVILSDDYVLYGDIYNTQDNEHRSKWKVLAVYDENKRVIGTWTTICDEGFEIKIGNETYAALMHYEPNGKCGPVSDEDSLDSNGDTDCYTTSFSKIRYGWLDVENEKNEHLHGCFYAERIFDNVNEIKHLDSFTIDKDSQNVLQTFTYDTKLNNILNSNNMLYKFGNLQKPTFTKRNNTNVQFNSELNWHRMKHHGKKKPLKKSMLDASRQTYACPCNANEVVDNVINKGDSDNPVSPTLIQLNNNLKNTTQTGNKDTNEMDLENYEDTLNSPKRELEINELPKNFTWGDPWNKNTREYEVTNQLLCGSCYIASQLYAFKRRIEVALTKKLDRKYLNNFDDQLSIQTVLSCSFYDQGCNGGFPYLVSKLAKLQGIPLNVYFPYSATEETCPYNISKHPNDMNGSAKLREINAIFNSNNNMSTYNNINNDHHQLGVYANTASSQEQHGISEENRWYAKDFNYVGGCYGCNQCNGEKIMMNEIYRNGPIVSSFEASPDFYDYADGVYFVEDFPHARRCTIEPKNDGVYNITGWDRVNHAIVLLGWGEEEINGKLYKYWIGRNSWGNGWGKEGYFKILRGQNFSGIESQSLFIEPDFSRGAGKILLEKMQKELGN

Row | SMILES | % Inhibition @ 10 uM
1 | Cc1ccc(NC=C2C(=O)CC(c3ccccc3)CC2=O)cc1C (stereo not shown) | -1.38%
2 | O=S(=O)(NCc1ccccn1)c1ccc(Oc2ccccc2)cc1 | -5.57%
3 | COc1ccccc1OCC(=O)Nc1ccc(C)cc1 | 3.91%
4 | Cc1ccc(-c2csc(NC(=O)C3CC3)n2)cc1 | -6.27%
5 | CC(=O)Nc1ccc(S(=O)(=O)NCc2cn(-c3ccccc3)nc2-c2ccccc2)cc1 | 0.907% and -1.37%
6 | Cc1cc(C)nc(NS(=O)(=O)c2ccc(NC(=S)NC(=O)c3ccccc3)cc2)n1 | -0.129%
7 | CC(=O)n1c(C#N)c(O)c2ccccc21 | -1.42%
8 | Cc1ccc(S(=O)(=O)NCc2ccc(C(=O)NCCCSC3CCCCC3)cc2)cc1 | 0.718%
9 | O=C1CNC(=O)/C1=C\c1ccc(Br)cc1 | -3.06%
10 | CCC(COc1nnnc2ccccc12)NC(=O)c1nccc2ccccc12 (stereo not shown) | -1.07%
11 | CC(C)Oc1ccc(NC(=O)C23CC4CC(CC(C4)C2)C3)cc1 | 0.00178%
12 | Cc1nn(C(=O)CCCC(=O)NCCCN2C(C)CCCC2C)c2ccccc12 (stereo not shown) | 3.87%
13 | N#CCNC(=O)C(Cc1ccc(Cl)cc1)NC(=O)OCc1ccccc1 (stereo not shown) | -10.7%
14 | O=C1CC(N2CCN(Cc3ccccc3)CC2)C(=O)N1c1ccc2c(c1)OCCO2 (stereo not shown) | 5.15%
15 | COCC(=O)Nc1cccc2ccccc12 | -0.425%
16 | N#C/C(=C/c1ccc(F)cc1)c1nc(-c2ccc(F)cc2)cs1 | 7.33%
17 | O=C1C(=O)N(C(=O)Nc2cccc3ccccc23)c2ccccc21 | 1.29%
18 | N#CC1=C(SCc2ccccc2)NC(=O)CC1c1ccc(F)cc1 (stereo not shown) | 0.673%
19 | Cc1ccccc1-c1noc(-c2ccc([N+](=O)[O-])cc2)n1 | -4.11%
20 | CCN1CCC(N(CC)Cc2ccccc2)CC1 | -0.0953%
21 | Cc1c(Cl)cccc1NC(=O)CCc1ccccc1 | 3.74%
22 | O=c1c2c(nc(SCCc3ccccc3)n1-c1ccccc1)-c1ccccc1CC21CCCCC1 | -2.2%
23 | COc1cc(S(=O)(=O)n2c(C)nc3ccccc32)ccc1Br | -7.17%
24 | COP(=O)(OC)C1(Nc2ccc(C)cc2)CCCCC1 | 3.42%
25 | OCC1CCCCN1Cc1ccc(Br)o1 (stereo not shown) | 2.65%

Row | SMILES | % Inhibition @ 10 uM
26 | O=C1CC(N2CCC(c3ccncc3)CC2)C(=O)N1Cc1ccccc1 (stereo not shown) | -5.72%
27 | CCN(CC)S(=O)(=O)c1cc(-c2nnc(O)c3ccccc23)ccc1C | -1.6%
28 | Cc1ccc(C(=O)Nc2cccc(O)c2)cc1 | 2.17%
29 | COc1ccc(C2C(C(=O)OCc3ccccc3)=C(C)N=C3SCCC(=O)N32)cc1OC (stereo not shown) | -1.17%
30 | CC(C)OCCCNC(=O)c1nnc(Cc2cccc(Cl)c2)o1 | 4.95%
31 | O=C(NCCc1ccccc1)Nc1ccc(Cl)c(Cl)c1 | -0.414%
32 | Cc1cc(Cl)ccc1OCC(=O)N(Cc1cccs1)C1CCS(=O)(=O)C1 (stereo not shown) | 2.1%
33 | O=C(O)c1c(-n2cnnn2)sc2c1CCCC2 | -4.67%
34 | COc1cc(C(=O)c2cc(Cl)ccc2N)cc(OC)c1OC | -3.38%
35 | COc1cc(C)c(C(C)C)cc1S(=O)(=O)NCCN1CCOCC1 | -7.47%
36 | COc1cccc(CNC(=O)c2sc3ccccc3c2Cl)c1 | -2.07%
37 | COc1ccc(-c2cc(-c3ccccc3)nc(-n3nc(-c4ccccc4)cc3O)n2)cc1OC | 1.87%
38 | CC(C)CCN(C)C1CCN(S(=O)(=O)c2ccc(C(C)(C)C)cc2)CC1 | 2.05%
39 | CN(CC(=O)N1CCc2ccccc2C1)S(=O)(=O)c1c[nH]cn1 | 3.24%
40 | O=[N+]([O-])c1ccc(N2CCOCC2)cc1OCCOc1ccccc1 | -6.78%
41 | CCN(CC)CC(O)Cn1c(C)c(C)c2ccccc21 (stereo not shown) | 5.31%
42 | O=C1N/C(=C/c2ccc(N3CCOCC3)o2)C(=O)N1c1cccc(Cl)c1 | 2.86%
43 | c1ccc(C2(Cn3ccc4ccccc43)OCCO2)cc1 | 4.33%
44 | O=C(Nc1nn2c(COc3ccccc3)nnc2s1)c1cccc(F)c1 | -4.37%
45 | COc1nc2c(c(=O)n(C)c(=O)n2C)n1Cc1ccc(Cl)c(Cl)c1 | 5.31%
46 | CCc1ccc(C2C(C#N)=C(N)Oc3cc(N(C)C)ccc32)cc1 (stereo not shown) | -2.91%
47 | CC1(C)CC2=Nc3ccccc3NC(c3cc4c(cc3[N+](=O)[O-])OCO4)C2=C(O)C1 (stereo not shown) | -1.25%
48 | CCOC(=O)N1CCN(C(=O)c2ccc(OCC)c(OCC)c2)CC1 | -3.69%
49 | CCC(=O)N1CCN(c2ccc(NC(=O)COc3ccc(C(C)CC)cc3)cc2)CC1 (stereo not shown) | 27.7%
50 | CCO/C(O)=C1\C(C)=NC(=S)NC1c1ccccc1OC(F)F (stereo not shown) | -0.142%

Row | SMILES | % Inhibition @ 10 uM
51 | CCn1c2ccccc2c2cc(CN(CCN(C)C)Cc3ccccc3)ccc21 | -2.18%
52 | CCOc1cccc2c1OC(c1cccnc1)N1N=C(c3ccccc3)CC21 (stereo not shown) | -1.11%
53 | Fc1ccccc1N1CCN(c2ncccn2)CC1 | -5.62%
54 | COc1ccc(CC(=O)Nc2ccc(S(=O)(=O)Nc3onc(C)c3C)cc2)cc1 | 1.57%
55 | Cc1cc(C)nc(NC(=O)COc2ccccc2)n1 | -1.36%
56 | CC(C)CC(C(=O)NCC#N)c1cccc(-c2ccc(S(=O)(=O)N3CCC(N(C)C)C3)cc2)c1 (stereo not shown) | 3.19%
57 | COc1cc(-c2nc3s/c(=C\C4=Cc5ccccc5OC4)c(=O)n3n2)cc(OC)c1OC | -6.78%
58 | CN1CCN(C(=O)CCCCCCCCC(=O)N2CCN(C)CC2)CC1 | 9.68%
59 | N#CCNC(=O)C(Sc1ccccc1)c1ccccc1 (stereo not shown) | -4.65%
60 | CCOC(=O)c1c(NC(=O)c2cc(-c3ccccc3OC)on2)sc(C(C)=O)c1C | 6.29%
61 | Cc1cc(C)c(NC(=O)C2CCCCN2C2CCCCC2)c(C)c1 (stereo not shown) | -0.415%
62 | Nc1nc(N)nc(-c2ccc(-c3nc(N)nc(N)n3)cc2)n1 | -5.68%
63 | Cc1ccc(/C=c2\sc3nc(=O)c(Cc4ccc(Cl)cc4)nn3c2=O)cc1 | 0.628%
64 | Cn1c(NCCc2ccccc2)cc(=O)n(C)c1=O | 2.44%
65 | CCCn1c(-c2ccc(OC)cc2)c(-c2ccc(OC)cc2)oc1=O | -2.86%
66 | Cc1nccn1CC1CCc2c(c3ccccc3n2C)C1=O (stereo not shown) | 0.962%
67 | CCOC(=O)c1c(-c2ccccc2)nn(-c2ccccc2)c1C | -2.77%
68 | COC(=O)c1ccc(C2c3c(oc4ccccc4c3=O)C(=O)N2c2ccc(C)cn2)cc1 (stereo not shown) | -3.64%
69 | CC(C)c1ccc(N2C(=O)CC(N3CCc4ccccc4C3)C2=O)cc1 (stereo not shown) | 4.76%
70 | COc1ccc(-c2nn3c(-c4ccc(C(C)(C)C)cc4)nnc3s2)cc1 | 3.59%
71 | Cn1c(=O)c2c(nc3n(Cc4ccc5c(c4)OCO5)c(-c4ccccc4)cn23)n(C)c1=O | -0.564%
72 | COc1ccc(C2CC(=O)Nc3cc(C)c(C)cc32)c(OC)c1OC (stereo not shown) | -7.25%
73 | COc1ccc(C2/C(=C(\O)OC3CCCCC3)C(C)=Nc3ncnn32)c(OC)c1OC (stereo not shown) | -2.01%
74 | Cc1ccc(Cn2cc(CCCC(=O)NCCN(C)C)c3ccccc32)cc1 | 2.89%
75 | CC1=C(C)C[C@@](SC#N)(c2ccccc2)S(=O)C1 (stereo partly shown) | 0.214%

Row | SMILES | % Inhibition @ 10 uM
76 | CN(Cc1ccco1)S(=O)(=O)c1ccc2[nH]c3c(c2c1)CCCC3 | -7.05%
77 | Cc1c(C(=O)NCc2cccnc2)oc2ccc3c(c12)C(O)CC(C)(C)O3 (stereo not shown) | -4.21%
78 | CCOc1cc(S(=O)(=O)Nc2ccccn2)ccc1Cl | -1.17%
79 | CC(C)Cc1ccc(-c2[nH]nc3c2C(c2ccncc2)C(C#N)=C(N)O3)cc1 (stereo not shown) | -1.07%
80 | O=C(NCc1ccc(Cl)c(Cl)c1)c1ccc2c(c1)OCO2 | -1.44%
81 | O=C(C1CCN(S(=O)(=O)c2ccccc2)CC1)N1CCOCC1 | -11.7%
82 | CC1CCN(Cc2nc(-c3ccc(Cl)cc3)no2)CC1 | -5.58%
83 | COc1ccc(NC(c2ccc(O)cc2)P(=O)(OC)OC)cc1 (stereo not shown) | -7.42%
84 | COc1ccc(-c2noc(CN(C(=O)COc3ccc(Br)c(C)c3)C(C)C)n2)cc1 | 4.41%
85 | Cc1cccc(Cn2c(CCCNC(=O)c3ccco3)nc3ccccc32)c1 | -2.99%
86 | O=C(O)Cn1cc(/C=C2/NC(=O)NC2=O)c2ccccc21 | -1.25%
87 | CC(C)OP(=O)(OC(C)C)C(Nc1ccc(Br)cc1)c1c[nH]c2ccccc12 (stereo not shown) | -1.59%
88 | COc1ccc(N2C(=O)C3ON(c4ccccc4)C(c4ccc(O)cc4)C3C2=O)cc1 (stereo not shown) | -3.16%
89 | CCOC(=O)C1=C(CC)OC(N)=C(C#N)C1c1ccccc1Cl (stereo not shown) | 9.14%
90 | Cc1cc(C)n2c(NC(C)C)c(-c3ccc(C)o3)nc2n1 | -2.41%
91 | Cn1c(=N)n(CC(=O)c2ccc(Br)cc2)c2ccccc21 | 0.161%
92 | COc1cc2c(cc1OC)CN(S(=O)(=O)c1ccc(Oc3ccccc3)cc1)CC2 | -6.65%
93 | N#CCNC(=O)C(NC(=O)c1ccccc1)Nc1ccccc1 (stereo not shown) | 1.35%
94 | O=C(c1ccc(Cl)cc1Cl)N1CCC(C(=O)N2CCCCCC2)CC1 | -6.92%
95 | Cc1ccnc2nc(NC(=O)C(C)(C)C)nn12 | -3.08%
96 | O=C1c2ccccc2C(=O)N1CC(O)COC1CCCCC1 (stereo not shown) | 6.12%
97 | O=C(O)c1ccc2c(c1)C(=O)N(c1cccc(N3C(=O)c4ccc(C(=O)O)cc4C3=O)n1)C2=O | 6.11%
98 | CN1C(=O)C(=Cc2cccc([N+](=O)[O-])c2)C(=O)N(C)C1=O | -5.96%
99 | O=C(/C=C/c1ccc2c(c1)OCO2)NCCn1ccc2ccccc21 | -0.396%
100 | COC(=O)c1ccc(Cl)c(NC(=O)CCC2CCCCC2)c1 | -5.6%
